Results from a collection of fitness landscapes (doi:10.1016/j.celrep.2020.107928).
The full ranking holds about 81,000 sequences; the median of “one-hybrid fitness for binding NBS DNA” is about -0.1, and the highest 2% start at about 0.36. The list shows a part of the results.

B1: Caulobacter ParB omega fusion; a variant is named by its letters at X, in order, B8GW30 (parent)
chain: MESVVVGEPGMSEGRRGLGRGLSALLGEVDAAPAQAPGEQLGGSREAPIEILQRNPDQPRRTFREEDLEDLSNSIREKGVLQPILVRPSPDTAGEYQIVAGERAWRAAQRAGLKTVPIMVRELDDLAVLEIGIIENVQRADLNVLEEALSYKVLMEKFERTQENIAQTIGKSXSHVANXMRLLXLPDEVQSYLVSGELTAXHARAIAAAADPVALAKQIIEGGLSVRETEALARKAPNLSAGKSKGGRPPRVKDTDTQALESDLSSVLGLDVSIDHRGSTGTLTITYATLEQLDDLCNRLTRGI

Variants of: B1
Assay: one-hybrid fitness for binding NBS DNA (the Noc-binding site; scaled: cognate 1, non-cognate 0); higher = stronger binding
Conditions: with NBS DNA site
How it was run: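 Pre- and post-selection plasmids were Illumina-sequenced, three replicate libraries were pooled, and any variant with under 10 reads was removed. The libraries were Caulobacter ParB with four specificity codons randomised, selected in E. coli USO through a HIS3 reporter whose site is 19 bp from the promoter. Cells grew 48 hours at 37°C on M9 without histidine, with 0.1 mM IPTG and 5 mM 3-AT. Fitness is the log change in variant-to-wild-type read ratio, rescaled against cognate and non-cognate.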

| Variant | one-hybrid fitness for binding NBS DNA |
| --- | --- |
| LAYM | ≤ 0.2 |
| LQPL | ≤ 0.2 |
| PNGR | ≤ 0.2 |
| TKGR | ≤ 0.2 |
| AEYV | ≤ 0.2 |
| CTEC | ≤ 0.2 |
| LHTL | ≤ 0.2 |
| KTEG | ≤ 0.2 |
| CAIT | ≤ 0.2 |
| FWLS | ≤ 0.2 |
| RIYG | ≤ 0.2 |
| YDPS | ≤ 0.2 |
| RDFM | ≤ 0.2 |
| DPAY | ≤ 0.2 |
| INDS | ≤ 0.2 |
| FVFS | ≤ 0.2 |
| QDGW | ≤ 0.2 |
| PDET | ≤ 0.2 |
| FCTF | ≤ 0.2 |
| FEGA | ≤ 0.2 |
| LDVM | 0.291 |
| RYSG | ≤ 0.2 |
| LGQF | ≤ 0.2 |
| FVDG | ≤ 0.2 |
| SFYC | ≤ 0.2 |
| FLGE | ≤ 0.2 |

| Variant | one-hybrid fitness for binding NBS DNA |
| --- | --- |
| HICV | ≤ 0.2 |
| KKLM | ≤ 0.2 |
| KENL | ≤ 0.2 |
| VSSN | ≤ 0.2 |
| HLMF | ≤ 0.2 |
| YRWL | ≤ 0.2 |
| QGQF | ≤ 0.2 |
| YPNT | 0.227 |
| SANA | ≤ 0.2 |
| VHTQ | ≤ 0.2 |
| FFHR | ≤ 0.2 |
| MSQS | ≤ 0.2 |
| TYAT | ≤ 0.2 |
| ITHC | ≤ 0.2 |
| VYSS | ≤ 0.2 |
| VEQS | ≤ 0.2 |
| GNQA | ≤ 0.2 |
| DLYC | ≤ 0.2 |
| LGWV | ≤ 0.2 |
| ERHP | ≤ 0.2 |
| PPIS | ≤ 0.2 |
| RRDE | ≤ 0.2 |
| GAYD | ≤ 0.2 |
| VSNE | ≤ 0.2 |
| SACL | ≤ 0.2 |
| FFKL | ≤ 0.2 |

| Variant | one-hybrid fitness for binding NBS DNA |
| --- | --- |
| ITLN | ≤ 0.2 |
| LLFT | ≤ 0.2 |
| FSVM | ≤ 0.2 |
| HSCG | ≤ 0.2 |
| ETYC | ≤ 0.2 |
| LNNY | ≤ 0.2 |
| TPDG | ≤ 0.2 |
| NNST | ≤ 0.2 |
| VLTD | ≤ 0.2 |
| ILHG | ≤ 0.2 |
| PYLE | ≤ 0.2 |
| KTIA | ≤ 0.2 |
| GLHF | ≤ 0.2 |
| LPQT | ≤ 0.2 |
| GRPF | ≤ 0.2 |
| RGYF | ≤ 0.2 |
| RYWF | ≤ 0.2 |
| NVSW | ≤ 0.2 |
| RYNW | ≤ 0.2 |
| TEHM | ≤ 0.2 |
| EQLR | ≤ 0.2 |
| RTIA | ≤ 0.2 |
| DVRW | ≤ 0.2 |
| PYWC | ≤ 0.2 |
| MVIR | ≤ 0.2 |
| FRHG | ≤ 0.2 |

| Variant | one-hybrid fitness for binding NBS DNA |
| --- | --- |
| DFST | ≤ 0.2 |
| HEKH | ≤ 0.2 |
| CKNG | ≤ 0.2 |
| YINY | ≤ 0.2 |
| TARN | ≤ 0.2 |
| ASEK | ≤ 0.2 |
| QHFL | ≤ 0.2 |
| SYNS | ≤ 0.2 |
| ASRR | ≤ 0.2 |
| RAFN | ≤ 0.2 |
| LCTE | ≤ 0.2 |
| VAQA | ≤ 0.2 |
| AAHG | ≤ 0.2 |
| KALK | ≤ 0.2 |
| GLDY | ≤ 0.2 |
| RFNW | ≤ 0.2 |
| WQLV | ≤ 0.2 |
| ALIN | ≤ 0.2 |
| QDQA | ≤ 0.2 |
| YLDC | ≤ 0.2 |
| SWLL | ≤ 0.2 |
| PFGL | ≤ 0.2 |
| YYCY | ≤ 0.2 |
| MDRR | ≤ 0.2 |
| PQAQ | ≤ 0.2 |
| MGRR | ≤ 0.2 |

| Variant | one-hybrid fitness for binding NBS DNA |
| --- | --- |
| RFKP | ≤ 0.2 |
| QRTM | 0.414 |
| LQEG | ≤ 0.2 |
| KVAG | ≤ 0.2 |
| DTVC | ≤ 0.2 |
| RNWT | ≤ 0.2 |
| YRWR | ≤ 0.2 |
| QRQM | 0.395 |
| YMTI | ≤ 0.2 |
| CHNT | ≤ 0.2 |
| QTYV | ≤ 0.2 |
| PDLN | ≤ 0.2 |
| RVAE | ≤ 0.2 |
| PIYS | ≤ 0.2 |
| NICS | ≤ 0.2 |
| PVLR | ≤ 0.2 |
| PSFM | ≤ 0.2 |
| HSYG | ≤ 0.2 |
| VWTW | ≤ 0.2 |
| VTIR | ≤ 0.2 |
| AESI | ≤ 0.2 |
| RTLI | ≤ 0.2 |
| SGKA | ≤ 0.2 |
| LPMC | ≤ 0.2 |
| MLDS | ≤ 0.2 |
| QDHT | ≤ 0.2 |

| Variant | one-hybrid fitness for binding NBS DNA |
| --- | --- |
| LMWS | ≤ 0.2 |
| LCMI | ≤ 0.2 |
| KSTC | ≤ 0.2 |
| QLYH | ≤ 0.2 |
| KCYS | ≤ 0.2 |
| NTMR | ≤ 0.2 |
| PVYK | ≤ 0.2 |
| VLYL | ≤ 0.2 |
| HRRE | ≤ 0.2 |
| MQKM | ≤ 0.2 |
| RHIE | ≤ 0.2 |
| RGFY | ≤ 0.2 |
| LGDP | ≤ 0.2 |
| IEMG | ≤ 0.2 |
| MLPI | ≤ 0.2 |
| ARLQ | ≤ 0.2 |
| RTFN | ≤ 0.2 |
| CGRR | 0.288 |
| HCER | ≤ 0.2 |
| THGW | ≤ 0.2 |
| ITLA | ≤ 0.2 |
| SMRI | ≤ 0.2 |
| YTPN | ≤ 0.2 |
